Drawing on PubChem BioAssay AID1745853 (National Center for Advancing Translational Sciences (NCATS), 2022), this text covers activity change, negative = inhibition for 29 compounds.

What all share (assay): Primary Screen for Target Class Profiling of Small Molecule Inhibitors of Methyltransferases
Assay [1] concerns the target Glycine N-methyltransferase (Homo sapiens) (UniProt Q14749). Conditions: purified enzyme, MTase-Glo SAH luminescence; measured here: GNMT inhibition; at 40 µM; stronger effect = lower value. The method, boiled down: (§1)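 Each enzyme was reacted with SAM and its substrate, with compounds tested once at 40 uM; SAH formed was read by MTase-Glo luminescence.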
Assay [2] addresses Guanidinoacetate N-methyltransferase (Homo sapiens) (UniProt Q14353). The following applies: purified enzyme, MTase-Glo SAH luminescence; measured here: GAMT inhibition; at 40 µM; stronger effect = lower value. The method, boiled down: as §1
Assay [3] addresses Histamine N-methyltransferase (Homo sapiens) (UniProt P50135). The following applies: purified enzyme, MTase-Glo SAH luminescence; measured here: HNMT inhibition; at 40 µM; stronger effect = lower value. The method, boiled down:
as §1

Assay [4] addresses Nicotinamide N-methyltransferase (Homo sapiens) (UniProt P40261). Conditions: purified enzyme, MTase-Glo SAH luminescence; measured here: NNMT inhibition; at 40 µM; stronger effect = lower value. The method, boiled down:
as §1

The target of assay [5] is Phenylethanolamine N-methyltransferase (Homo sapiens) (UniProt P11086). Conditions: purified enzyme, MTase-Glo SAH luminescence; measured here: PNMT inhibition; at 40 µM; stronger effect = lower value. The method, boiled down:
as §1

Where “and” joins values, the source holds several entries; their conditions need not be identical. Equal values may be shown once. This is one part of the list. Further columns of the screen follow, without active or inactive calls. Peptide text beside a SMILES is read from it.
% is scaled to controls: 0 for no effect and ±100 for the full control effect.

Regarding `CC1CC(C)CN(S(=O)(=O)c2ccc3c(c2)oc(=O)n3CC(=O)N(C)Cc2ccco2)C1` (stereo not drawn), the activity change, negative = inhibition in assay [1] is -5.26%; in assay [2], 0%; in assay [3] it was 6.92%; in assay [4] it was 5.94%; in assay [5] it was 0.834%.
On to `COc1ccc(Cn2c(=O)c3ccccc3n3c(-c4cccc(OC)c4)nnc23)cc1`, for which the activity change, negative = inhibition in assay [1] is -12%; in assay [2] it was 2.81%; in assay [3], -4.7%; in assay [4], -7.02%; in assay [5], -4.98%.
Regarding `CC1(C(=O)Nc2ccccc2)CN(Cc2ccccc2)Cc2ccc(N3CCOCC3)nc21` (stereo not drawn), the activity change, negative = inhibition is -9.07% in assay [1]; -0.328% in assay [2]; -6.45% in assay [3]; -5.72% in assay [4]; -14.7% in assay [5].
Consider `CCOc1ccccc1CN1C(=O)c2cc3ccccc3n2CC1(C)C(=O)NCc1ccccc1OC` (stereo not drawn), for which the activity change, negative = inhibition in assay [1] was -0.285%; in assay [2], 4.53%; in assay [3], 0.394%; in assay [4] it was 6.41%; in assay [5], -5.86%.
For the compound `Cc1nc2ccc(-n3ncc(C(=O)c4cc5ccccc5[nH]4)c3N)cc2[nH]1`, the activity change, negative = inhibition in assay [1] is -19.4%; in assay [2], 1.91%; in assay [3] it was -4.35%; in assay [4] it was -15.8%; in assay [5], -12.4%.
For `CCOC(=O)c1cnc(N2CC3CCC(C2)N3CC(F)(F)F)s1`, in that order: -2.54%, -1.63%, -15.9%, -8.9% and -2.57%.
For `COCCn1nc2n(c1=O)CCN(Cc1cccc(OC)n1)CC2`, the activity change, negative = inhibition was -0.066% in assay [1]; 0.83% in assay [2]; 0.065% in assay [3]; 0.891% in assay [4]; 2.18% in assay [5].
As for `CC(C)n1cnc2c(NCc3ccccc3)nc(NCCCO)nc21`, the activity change, negative = inhibition in assay [2] is 1.43%; in assay [4], -6.62%; in assay [5], 6.61%.
For `N#Cc1c(O)c2c(-c3ccc(-c4ccccc4O)cc3)csc2[nH]c1=O`, the activity change, negative = inhibition in assay [1] was -56.7% and 14.6%; in assay [2], -21.2%; in assay [3], -2.43% and 11.2%; in assay [4], -53.9% and -14%; in assay [5], -23.8% and -20.7%.
As for `COc1ccc(CN2C(=O)c3c(NC(C)=O)c4cc(C)ccc4n3CC2(C)C(=O)NC2CCCCCC2)cc1` (stereo not drawn), the activity change, negative = inhibition in assay [1] was -8.73%; in assay [2], -0.795%; in assay [3], -6%; in assay [4], -8.8%; in assay [5], -3.67%.
Take `CC1NC(=O)CNC(=O)C(C(C)C)NC(=O)C2CCCN2C(=O)C(C(C)C)NC(=O)C(Cc2c[nH]c3ccccc23)NC1=O` (stereo not drawn) (cyclo(GAWVPV); configuration not given here): the activity change, negative = inhibition is 3.1% in assay [1]; 3.55% in assay [2]; 11.9% in assay [3]; -9.61% in assay [4]; 3.16% in assay [5].
Consider `COC(=O)c1ncn2c1C(=O)N(c1cc(C)ccc1C)C(C)(C(=O)NCc1ccccc1)C2` (stereo not drawn), for which the activity change, negative = inhibition in assay [1] turned out to be 5.45%; in assay [2] it was 0%; in assay [3], 10.8%; in assay [4], 7.5%; in assay [5] it was 6.74%.
With `CCn1cc(-c2ccncc2)cc1C(=O)NCc1ccc(OC(C)C)cc1`, the activity change, negative = inhibition in assay [1] is -7.08%; in assay [2] it was -3.83%; in assay [3] it was -19%; in assay [4], -10.6%; in assay [5], -6.33%.
As for `CCOCCCN1C(=O)c2cc3sc(CC)cc3n2CC1(C)C(=O)NC1CCCCCC1` (stereo not drawn), the activity change, negative = inhibition is 4.01% in assay [1]; 0% in assay [2]; 7.8% in assay [3]; 0.959% in assay [4]; -1.3% in assay [5].
For `Cc1ccsc1C(=O)NC1CCN(c2cc(-c3ccc(F)cc3)[nH]n2)C1` (stereo not drawn), in that order: -7.71%, -2.58%, -0.606%, -17.9% and 7.71%.
With `COc1ccccc1N1CCN(C(=O)Cn2c(=O)n3nc(-c4ccccc4)nc3c3ccccc32)CC1`, the activity change, negative = inhibition stood at 16.5% in assay [1]; 0% in assay [2]; 11.4% in assay [3]; 4.27% in assay [4]; 5.99% in assay [5].
Consider `CC1CCCC(NC(=O)C2(C)Cn3c(cc4sccc43)C(=O)N2Cc2ccccc2F)C1C` (stereo not drawn), for which the activity change, negative = inhibition is -0.251% in assay [1]; 0.714% in assay [2]; 0.091% in assay [3]; 1.26% in assay [4]; -1.79% in assay [5].
As to `COc1ccc(C(=O)O[C@H]2CC(C)=CC[C@@]3(C)[C@@H](OC(C)=O)C[C@@](O)(C(C)C)[C@H]23)cc1`, the activity change, negative = inhibition in assay [1] is 6.62%; in assay [2], 7.84%; in assay [3] it was 12.2%; in assay [4] it was -6.51%; in assay [5], 1.46%.
For `COC(=O)c1cc2n(n1)CC(C)(C(=O)NC1CCCCCC1)N(Cc1ccc(OC(C)C)cc1)C2=O` (stereo not drawn), in that order: 5.79%, 1.69%, -0.288%, 5.5% and 6.69%.
In the case of `CCOC(=O)c1cc2n(n1)CC(C)(C(=O)NC1CCCC1)N(c1cccc(C)c1C)C2=O` (stereo not drawn), the activity change, negative = inhibition in assay [1] came to 3.25%; in assay [2] it was 0%; in assay [3] it was 2.86%; in assay [4], 5.31%; in assay [5] it was 1.6%.
As for `CCC(C)NC(=O)c1ccc2c(=O)n(CC(C)C)c3nn(CC(=O)NC4CCCC4)c(=O)n3c2c1` (stereo not drawn), the activity change, negative = inhibition is -1.56% in assay [1]; 4.95% in assay [2]; 4.32% in assay [3]; -7.77% in assay [4]; -2.57% in assay [5].
Turning to `OCC1(CN2CCCC2)CCN(Cc2cnn(-c3ccccc3)c2)CC1`, the activity change, negative = inhibition in assay [1] is -3.21%; in assay [2] it was -4.87%; in assay [3] it was -29.7%; in assay [4], -4.89%; in assay [5], -3.34%.
Taken in the same sequence, the figures for `COc1cccc(C)c1C(=O)O[C@@H]1C[C@H](O[C@H]2[C@H](O)C[C@H](O[C@@H]3CCC[C@H]4[C@H]3C=C[C@@H]3CCCC/C=C/[C@H]5C=C(C(=O)O)[C@@H](C)C[C@@]56OC(=O)C(=C6O)OC(=O)[C@@]34C)O[C@@H]2C)O[C@H](C)[C@H]1O` were 0.415%, 6.33%, 10%, -7.5% and 4.09%.
Regarding `Cc1cccc(CNC(=O)c2cc3n(n2)CC(C)(C(=O)NC2CCCCCC2)N(C)C3=O)c1` (stereo not drawn), the activity change, negative = inhibition in assay [1] was -5.31%; in assay [2] it was 5.77%; in assay [3], -2.02%; in assay [4], 5.56%; in assay [5], -1.32%.
Consider `CN(C)CCN1C(=O)c2ccc(-c3ccco3)n2CC1(C)C(=O)NC1CCCCCC1` (stereo not drawn), for which the activity change, negative = inhibition in assay [1] is 5.84%; in assay [2], 3.79%; in assay [3], 7.74%; in assay [4], 4.14%; in assay [5], 0.171%.
For `Cn1cnc(-c2cc3nccc(Oc4ccc(NC(=S)NC(=O)Cc5ccccc5)cc4F)c3s2)c1`, the activity change, negative = inhibition in assay [1] is 4.97%; in assay [2], 4.52%; in assay [3], 12.4%; in assay [4], -23.3%; in assay [5], 3.33%.
Taken in the same sequence, the figures for `CCCn1c(=O)c2ccc(C(=O)NC(C)CC)cc2n2c(=O)n(Cc3ccccc3F)nc12` (stereo not drawn) were 2.74%, 0%, 6.65%, -3.59% and 0.532%.
Take `O=C(CCc1nnc2n(Cc3ccc(Cl)cc3)c(=O)c3ccccc3n12)N1CCc2ccccc2C1`: the activity change, negative = inhibition in assay [1] is -0.808%; in assay [2], 0.468%; in assay [3] it was 5.9%; in assay [4], 4.98%; in assay [5] it was 3.29%.
Consider `COc1cccc(CNC(=O)C2CCCCc3nnc(-c4ccccc4)n32)c1` (stereo not drawn), for which the activity change, negative = inhibition was -4.46% in assay [1]; -8.39% in assay [2]; -1.54% in assay [3]; -12.3% in assay [4]; -8.32% in assay [5].
